Experimental findings from paper PMC12820563, “FoxP3 forms a head-to-head dimer in vivo and stabilizes its multimerization on adjacent microsatellites” are described below.

The other results are listed elsewhere or left out.

The target of this assay is T1, MBP-FoxP1dN (Mus musculus, UniProt P58462 326-579).
T1 sequence: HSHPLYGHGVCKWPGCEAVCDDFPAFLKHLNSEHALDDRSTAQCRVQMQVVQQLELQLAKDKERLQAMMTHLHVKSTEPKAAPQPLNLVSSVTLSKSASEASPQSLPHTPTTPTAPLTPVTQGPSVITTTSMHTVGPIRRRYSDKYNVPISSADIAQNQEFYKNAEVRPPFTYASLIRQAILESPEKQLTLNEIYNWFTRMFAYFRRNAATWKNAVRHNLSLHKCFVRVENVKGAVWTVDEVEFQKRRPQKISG
The assay can be described thus: PD-seq (MBP pull-down with sequencing); 20 mM Tris-HCl pH 7.5, 100 mM NaCl, 1.5 mM MgCl2, 0.4 uM protein, 0.1 uM dsDNA library, 30 min, room temperature, amylose pull-down; high values mean tight binding. The conditions noted are these: protein: recombinant; tags: His6-MBP; chain copies: 2; dsDNA, one strand shown. In a few lines:
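A fragment of mouse FoxP3 or FoxP1 without its N-terminus, carrying a His6-MBP tag and produced in E. coli, was combined at 0.4 µM with a 0.1 µM degenerate double-stranded DNA library filled in with Klenow. The mixture sat for 30 min at room temperature in Tris pH 7.5 buffer containing NaCl and MgCl2. Protein–DNA complexes were captured on amylose resin, washed three times, and the DNA was freed with proteinase K, barcoded by PCR and sequenced on Illumina. Binding is expressed as reads-per-million enrichment of pull-down over input, with replicates pooled.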
“GATGATTGTTCTCCCAGCTGATGAATTGGGTCCTTCGAGTAAACAAATTTTCCTAATCTTTCTGTTCAAGCGCCATCTAC”: the binding signal is 0.85 RPM ratio (pull-down/input). As for “GATGATTGTTCTCCCAGCTGATGAATTCAGTGGATCGAGTAAACAAATTTTCCTAATCTTTCTGTTCAAGCGCCATCTAC”, the figure is 0.832 RPM ratio (pull-down/input); as for “GATGATTGTTCTCCCAGCTGATGAATTATCGCCATCGAGTAAACAAATTTTCCTAATCTTTCTGTTCAAGCGCCATCTAC”, 0.996 RPM ratio (pull-down/input). Regarding “GATGATTGTTCTCCCAGCTGATGAATTTCAAGATTCGAGTAAACAAATTTTCCTAATCTTTCTGTTCAAGCGCCATCTAC”, the binding signal is 0.833 RPM ratio (pull-down/input). For “GATGATTGTTCTCCCAGCTGATGAATTAGAGCCCTCGAGTAAACAAATTTTCCTAATCTTTCTGTTCAAGCGCCATCTAC”, the binding signal is 0.741 RPM ratio (pull-down/input). Turning to “GATGATTGTTCTCCCAGCTGATGAATTCTTCCCTTCGAGTAAACAAATTTTCCTAATCTTTCTGTTCAAGCGCCATCTAC”, the binding signal is 0.873 RPM ratio (pull-down/input).

On to “GATGATTGTTCTCCCAGCTGATGAATTTCCAAGTTCGAGTAAACAAATTTTCCTAATCTTTCTGTTCAAGCGCCATCTAC”, for which the binding signal was 0.843 RPM ratio (pull-down/input). With “GATGATTGTTCTCCCAGCTGATGAATTTTATTCATCGAGTAAACAAATTTTCCTAATCTTTCTGTTCAAGCGCCATCTAC”, the binding signal is 0.976 RPM ratio (pull-down/input). With “GATGATTGTTCTCCCAGCTGATGAATTGGTAGTCTCGAGTAAACAAATTTTCCTAATCTTTCTGTTCAAGCGCCATCTAC”, the binding signal is 0.948 RPM ratio (pull-down/input). For “GATGATTGTTCTCCCAGCTGATGAATTATTCCGCTCGAGTAAACAAATTTTCCTAATCTTTCTGTTCAAGCGCCATCTAC”, the binding signal is 0.9 RPM ratio (pull-down/input). On to “GATGATTGTTCTCCCAGCTGATGAATTAAGCATATCGAGTAAACAAATTTTCCTAATCTTTCTGTTCAAGCGCCATCTAC”, for which the binding signal was 0.99 RPM ratio (pull-down/input). “GATGATTGTTCTCCCAGCTGATGAATTACACTCGTCGAGTAAACAAATTTTCCTAATCTTTCTGTTCAAGCGCCATCTAC”: the binding signal is 1.15 RPM ratio (pull-down/input). In the case of “GATGATTGTTCTCCCAGCTGATGAATTTACGACGTCGAGTAAACAAATTTTCCTAATCTTTCTGTTCAAGCGCCATCTAC” it was 1.19 RPM ratio (pull-down/input); in that of “GATGATTGTTCTCCCAGCTGATGAATTGCTGGCATCGAGTAAACAAATTTTCCTAATCTTTCTGTTCAAGCGCCATCTAC”, 1.06 RPM ratio (pull-down/input); in that of “GATGATTGTTCTCCCAGCTGATGAATTCTCATCTTCGAGTAAACAAATTTTCCTAATCTTTCTGTTCAAGCGCCATCTAC”, 0.835 RPM ratio (pull-down/input). Regarding “GATGATTGTTCTCCCAGCTGATGAATTCGGGTCATCGAGTAAACAAATTTTCCTAATCTTTCTGTTCAAGCGCCATCTAC”, the binding signal was 0.906 RPM ratio (pull-down/input). On to “GATGATTGTTCTCCCAGCTGATGAATTAGTTGATTCGAGTAAACAAATTTTCCTAATCTTTCTGTTCAAGCGCCATCTAC”, for which the binding signal was 1.1 RPM ratio (pull-down/input).

Take “GATGATTGTTCTCCCAGCTGATGAATTATTACAGTCGAGTAAACAAATTTTCCTAATCTTTCTGTTCAAGCGCCATCTAC”: the binding signal is 1.07 RPM ratio (pull-down/input). As for “GATGATTGTTCTCCCAGCTGATGAATTGAGGGGATCGAGTAAACAAATTTTCCTAATCTTTCTGTTCAAGCGCCATCTAC”, the binding signal is 0.839 RPM ratio (pull-down/input). As for “GATGATTGTTCTCCCAGCTGATGAATTAGGTGTATCGAGTAAACAAATTTTCCTAATCTTTCTGTTCAAGCGCCATCTAC”, the figure is 1.2 RPM ratio (pull-down/input); as for “GATGATTGTTCTCCCAGCTGATGAATTACGCGGATCGAGTAAACAAATTTTCCTAATCTTTCTGTTCAAGCGCCATCTAC”, 0.908 RPM ratio (pull-down/input). With “GATGATTGTTCTCCCAGCTGATGAATTATTACCCTCGAGTAAACAAATTTTCCTAATCTTTCTGTTCAAGCGCCATCTAC”, the binding signal is 0.999 RPM ratio (pull-down/input).

Consider “GATGATTGTTCTCCCAGCTGATGAATTCTAGCCGTCGAGTAAACAAATTTTCCTAATCTTTCTGTTCAAGCGCCATCTAC”, for which the binding signal is 0.848 RPM ratio (pull-down/input). On to “GATGATTGTTCTCCCAGCTGATGAATTAAACATATCGAGTAAACAAATTTTCCTAATCTTTCTGTTCAAGCGCCATCTAC”, for which the binding signal was 1.4 RPM ratio (pull-down/input). Turning to “GATGATTGTTCTCCCAGCTGATGAATTAGCCTATTCGAGTAAACAAATTTTCCTAATCTTTCTGTTCAAGCGCCATCTAC”, the binding signal was 0.875 RPM ratio (pull-down/input).

For “GATGATTGTTCTCCCAGCTGATGAATTTGACGAATCGAGTAAACAAATTTTCCTAATCTTTCTGTTCAAGCGCCATCTAC”, the binding signal was 0.846 RPM ratio (pull-down/input).

For the sequence “GATGATTGTTCTCCCAGCTGATGAATTATTCCTGTCGAGTAAACAAATTTTCCTAATCTTTCTGTTCAAGCGCCATCTAC”, the binding signal was 0.964 RPM ratio (pull-down/input). Take “GATGATTGTTCTCCCAGCTGATGAATTGCTTCTATCGAGTAAACAAATTTTCCTAATCTTTCTGTTCAAGCGCCATCTAC”: the binding signal was 1.08 RPM ratio (pull-down/input). Take “GATGATTGTTCTCCCAGCTGATGAATTCGACTGCTCGAGTAAACAAATTTTCCTAATCTTTCTGTTCAAGCGCCATCTAC”: the binding signal was 0.795 RPM ratio (pull-down/input).

Take “GATGATTGTTCTCCCAGCTGATGAATTGTACCGCTCGAGTAAACAAATTTTCCTAATCTTTCTGTTCAAGCGCCATCTAC”: the binding signal is 0.843 RPM ratio (pull-down/input). Take “GATGATTGTTCTCCCAGCTGATGAATTGTCGCGATCGAGTAAACAAATTTTCCTAATCTTTCTGTTCAAGCGCCATCTAC”: the binding signal is 0.957 RPM ratio (pull-down/input).
